# Laboratory results published in article PMC4336329 (PLoS ONE, 2015).
# Among all 310,000 compounds or so, about 2,200 (0.71%) showed an effect of 50% or more. The effect is printed as a negative number. This is one part of the list.
# Biological target: human ether-à-go-go-related gene (hERG) potassium channel (human, UniProt Q12809)
# Test: primary screen, population patch clamp on CHO cells stably expressing hERG
# human ether-à-go-go-related gene (hERG) potassium channel, sequence (Q12809 whole entry, looked up): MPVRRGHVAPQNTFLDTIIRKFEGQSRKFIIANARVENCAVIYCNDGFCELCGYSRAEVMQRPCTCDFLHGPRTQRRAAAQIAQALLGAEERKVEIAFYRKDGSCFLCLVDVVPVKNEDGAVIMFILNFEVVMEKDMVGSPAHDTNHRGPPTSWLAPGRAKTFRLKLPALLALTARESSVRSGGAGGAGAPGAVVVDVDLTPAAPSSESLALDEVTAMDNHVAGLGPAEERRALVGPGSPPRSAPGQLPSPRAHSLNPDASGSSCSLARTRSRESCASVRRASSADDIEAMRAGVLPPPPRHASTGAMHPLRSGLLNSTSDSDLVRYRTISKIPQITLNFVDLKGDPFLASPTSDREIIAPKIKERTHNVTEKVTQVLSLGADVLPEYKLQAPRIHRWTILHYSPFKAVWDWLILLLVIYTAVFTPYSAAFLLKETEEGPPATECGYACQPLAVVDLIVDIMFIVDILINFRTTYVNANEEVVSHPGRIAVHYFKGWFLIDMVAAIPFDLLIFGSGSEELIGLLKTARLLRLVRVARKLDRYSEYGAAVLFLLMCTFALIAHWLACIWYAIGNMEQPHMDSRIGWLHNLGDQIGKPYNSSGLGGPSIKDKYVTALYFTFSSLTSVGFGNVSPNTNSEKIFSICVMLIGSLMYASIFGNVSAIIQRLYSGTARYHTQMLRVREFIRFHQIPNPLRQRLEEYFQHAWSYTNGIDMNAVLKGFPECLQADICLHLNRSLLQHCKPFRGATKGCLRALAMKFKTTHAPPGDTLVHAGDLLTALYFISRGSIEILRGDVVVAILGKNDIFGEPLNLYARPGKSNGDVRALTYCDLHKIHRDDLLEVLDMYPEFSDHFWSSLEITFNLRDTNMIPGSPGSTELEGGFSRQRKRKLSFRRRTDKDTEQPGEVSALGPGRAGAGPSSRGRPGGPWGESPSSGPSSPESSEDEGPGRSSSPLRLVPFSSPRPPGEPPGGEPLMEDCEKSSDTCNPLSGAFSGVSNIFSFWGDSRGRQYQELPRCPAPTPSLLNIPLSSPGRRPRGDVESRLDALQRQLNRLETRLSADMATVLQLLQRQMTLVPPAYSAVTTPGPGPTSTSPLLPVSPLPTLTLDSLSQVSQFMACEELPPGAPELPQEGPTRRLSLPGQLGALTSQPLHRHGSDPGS
row,SMILES,"hERG current change (%, negative = inhibition) at 1uM [%]"
1,COC(=O)/C(=C/Nc1ccccc1)[N+](=O)[O-],4.03
2,COc1ccc2oc(=N)c(C(=O)Nc3cccc(C)c3C)cc2c1,16.7
3,O=C(NCCS(=O)(=O)N1CCN(c2ccccc2F)CC1)c1ccc(Cl)cc1,-21.8
4,CCCC(=O)NC(C)c1nc(-c2ccc(C)cc2)no1 (stereo not shown),9.81
5,Cc1ccc(-n2c(O)c(/C=N/c3ncn[nH]3)c3ccccc3c2=O)cc1,13.8
6,COC(=O)C(C)Oc1ccc(=O)[nH]n1 (stereo not shown),6.9
7,COc1ccccc1/C=C/C(=O)OCC(=O)c1c(N)n(C)c(=O)n(C)c1=O,5.86
8,COc1ccc(NC(=O)C(Sc2nnc(-c3ccncc3)n2-c2ccccc2C)c2ccccc2)cc1Cl (stereo not shown),-2.79
9,CCCNC(=S)NC1CC2CCCC(C1)N2CC(C)C.Cl (stereo not shown),14.9
10,CC(C)Oc1cccc(C(=O)NC2=NCCS2)c1,5.37
11,O=S1(=O)CCC(n2ncc3c2/C(=C/c2ccccc2)CC3)C1 (stereo not shown),9.48
12,COc1ccc(Br)cc1CNc1ccccc1.O=C(O)C(=O)O,9.21
13,COC(=O)c1ccc(CNC(=O)COC(=O)CC23CC4CC(CC(Br)(C4)C2)C3)cc1,0.866
14,COc1ccc2c(c1)c1nc3n(c(=O)c1n2CC(=O)Nc1ccccc1)CCS3,12.1
15,COCCN1CC(=O)N2C(c3cccc(C)c3)c3[nH]c4ccccc4c3C[C@H]2C1=O (stereo partly shown),1.07
16,CC1CCN(C(=O)c2cc(Cl)nc3ccccc23)CC1,12.4
17,CCN(CC)C1=CC(=O)OC12CCCCC2,7.37
18,O=C(COc1ccccc1)NCC(=O)N/N=C/c1cccs1,6.35
19,CCCCCC(=O)N1CC2(CC(c3cccc(NC(=O)COc4ccc(Cl)cc4)c3)=NO2)C[C@@H]1C(N)=O (stereo partly shown),-22.3
20,CCNC(=O)NC(=O)CSc1nc2ccccc2n1CCOC,3.95
21,COc1ccc(/C=C/c2ccc3c(Br)ccc(O)c3n2)cc1,6.95
22,CCN(CC)c1ccc(/C=N/NC(=O)c2nnn(-c3nonc3N)c2C(C)C)c(O)c1,12.1

row,SMILES,"hERG current change (%, negative = inhibition) at 1uM [%]"
1,CCOC(=O)c1sc(NC(=O)CSc2nc3c(cc2C#N)CCCCC3)c(C#N)c1C,7.55
2,Cc1ccc2oc(C(=O)N3CCN(CCO)CC3)c(C)c2c1,14.6
3,CC(=O)Nc1ccc(Nc2c([N+](=O)[O-])c(=O)n(-c3ccccc3)c3ccccc23)cc1,7.01
4,COc1ccc(-c2ccc(=O)n(Cc3cccc([N+](=O)[O-])c3)n2)cc1,8.51
5,CSCC[C@H](NC(=O)Nc1ccc(S(N)(=O)=O)cc1)C(=O)O,10.7
6,Cn1c(O)c(C=NC2CCN(Cc3ccccc3)CC2)c(=O)n(C)c1=O,3.17
7,FC(F)(F)c1cccc(/C=N/NC(=S)NC2CCCCC2)c1,12.1
8,COC(=O)C1=C(N)Oc2cc(C)n(CC3CCCO3)c(=O)c2C1c1ccc(Cl)c(Cl)c1 (stereo not shown),3.93
9,O=C(Nc1ccc(Oc2ccc(Cl)cc2)c(Cl)c1)c1cc(I)cc(I)c1O,15.4
10,COC(=O)c1c(C)[nH]c(C)c1-c1ccccc1Cl,0.136
11,Cc1ccccc1NC(=S)N(CCN1CCCCCC1)Cc1cccs1,2.2
12,O=C(CCCC(=O)NNC(=O)Nc1ccccc1)NNC(=O)Nc1ccccc1,17
13,C[C@@H](C(=O)NCCc1ccccc1F)N1C(=O)N2CCc3c([nH]c4ccccc34)[C@@]2(C)C1=O,-4.43
14,Cc1ccc(NC(=O)CCC(=O)c2cc(C)sc2C)nc1,-7.44
15,CC(=O)c1ccc(NC(=O)CN2C(=O)COc3ccc(Cl)cc32)cc1,9.54
16,O=C(CCn1cccc1)Nc1nccs1,4.25
17,O=C(Nc1ccnn1C1CCN(Cc2ccccc2F)CC1)C1CCCC1,-6.15
18,CCOc1ccc2nc(-c3ccccc3)[nH]c2c1,6.79
19,O=C(O)C1=C[C@@H](c2ccc3c(c2)OCO3)C[C@@H](OCCCCO)O1,17
20,COCCn1nnnc1C(c1ccc(OC)cc1OC)N1CCN(c2ccccc2)CC1 (stereo not shown),-54.1
21,O=Cc1ccc(OCc2ccc3ccccc3c2)cc1,12.6
22,CCOC(=O)c1c(NC(=O)CN2C(=O)NC3(CCCCC3C)C2=O)sc(C)c1C (stereo not shown),11.5

row,SMILES,"hERG current change (%, negative = inhibition) at 1uM [%]"
1,O=C(COC(=O)CCc1ccccc1)NC1CCS(=O)(=O)C1 (stereo not shown),14
2,Cc1ccc(CN2CCC(CO)(CC3CCCCO3)CC2)o1 (stereo not shown),9.94
3,CC(=O)N1CCC(=NNC(=O)c2cc3ccccc3cc2O)CC1,9.89
4,CC1CN(C(=O)Cn2c(=O)oc3ccccc32)CC(C)O1 (stereo not shown),15.3
5,O=C(NC1CCCC1)c1cnn2c(C(F)(F)F)cc(-c3ccco3)nc12,0.247
6,CC(C)(C)C(=O)c1sc(Nc2ccccc2)nc1N,9.05
7,Cc1cccc(-c2cc(C(=O)N3CCCc4ccccc43)c3ccccc3n2)c1,10.5
8,CCOC(=O)c1ccccc1NS(=O)(=O)c1ccccc1F,10.4
9,O=C(COC(=O)c1ccc(S(=O)(=O)NCc2ccco2)cc1)Nc1ccc(OC(F)F)cc1,4.14
10,COc1cc(OC)c(NC(=O)c2cc(S(=O)(=O)N3CCOCC3)cn2C)cc1Cl,13.3
11,CCn1ccc(C(=O)Oc2ccc(C(C)C)cc2)n1,10.2
12,COc1cccc(Nc2ncnc3ccccc23)c1.Cl,6.61
13,CN(C)C(=O)Oc1cccc(-c2cn3cc(Cl)ccc3n2)c1,4.07
14,CCn1ncc(NC(=O)Nc2cccc(C(F)(F)F)c2)c1C(N)=O,5.39
15,Cc1ccc(-c2nnc(N(C)C(=O)c3cccnc3)s2)cn1,6.03
16,Cc1ccc(C(=O)N/N=C(\CC(C)C)c2ccccc2)cc1,-5.55
17,O=c1[nH]nc(-c2ccc(F)cc2)cc1Cc1ccccc1,11.8
18,Cc1cc(NC(=O)/C=C/c2ccccc2Cl)n(-c2nc3ccccc3[nH]2)n1,17.6
19,CCOC(=O)C1CCN(c2nc(-c3ccc(Br)cc3)nc3ccccc23)CC1,0.984
20,CCOC(=O)N1CCN(S(=O)(=O)N2CCCC(C(=O)NCCc3ccc(Cl)cc3)C2)CC1 (stereo not shown),10.2
21,COC(=O)c1cc(S(=O)(=O)NCc2ccc3c(c2)OCO3)cn1C,8.21
22,NS(=O)(=O)c1ccc(CCNC(=O)CN2CCN(c3ccc(F)cc3)CC2)cc1,4.09

row,SMILES,"hERG current change (%, negative = inhibition) at 1uM [%]"
1,COc1cccc(OC)c1C(=O)NC(=O)Oc1c(F)cccc1F,11.2
2,COc1ccc(Nc2cc(C(=O)NCc3ccco3)c3ccccc3n2)cc1,9.95
3,CCc1ccc2nc(SCC(=O)N3CC(=O)Nc4ccccc43)c(C#N)cc2c1,12
4,Cc1cc(/C=C2\C(=O)NC(=O)N(c3ccc(Cl)cc3)C2=O)c(C)n1-c1sc2c(c1C#N)CCCC2,5.09
5,C=CCN1C(=O)NC2(CCCCC2)C1=O,-1.46
6,COc1ccc(C(=O)/C=C/c2ccccc2)c(OC)c1,8.99
7,Cc1c(N)c(C)c([N+](=O)[O-])c(C)c1[N+](=O)[O-],2.23
8,COc1nc(N=C(N)N)nc2ccc(C)cc12,-3.96
9,O=C(O)Cc1ccc(NC(=O)Nc2cccc3ccccc23)cc1,8.27
10,Cc1cccc(C(=O)Nc2c(C(=O)N3CCN(C)CC3)cnn2-c2ccccc2)c1,-0.113
11,COC(=O)c1sccc1NC(=O)c1cccs1,14.6
12,Cc1cccc(OCC(=O)N/N=C/CC(C)c2ccccc2)c1C (stereo not shown),8
13,O=C1NC(=Nc2ccc(Cl)cc2)/C(=C/c2ccco2)S1,11.7
14,CN(C)CCNC(=O)C1CCN(S(=O)(=O)c2ccc3ccccc3c2)CC1,4.97
15,CCOc1cc(C=O)ccc1OCCSc1ccc(Cl)cc1,12.1
16,CC1(C)CC(=O)C=C(NNC(=O)c2cccnc2)C1,18
17,CC(C)CNC(=O)c1c(N)n(Cc2ccco2)c2nc3ccccc3nc12,2.83
18,CC(=O)O[C@H]1C(=O)[C@@]2(C)C([C@H](OC(=O)c3ccccc3)[C@]3(O)C[C@H](OC(=O)[C@H](O)[C@@H](NC(=O)Cc4ccccc4)c4ccccc4)C(C)=C1C3(C)C)[C@]1(OC(C)=O)CO[C@@H]1C[C@@H]2O (stereo partly shown),16.9
19,CCCNc1nc(-c2cc(-c3ccc(Cl)cc3)on2)cc(C(C)C)n1,20.5
20,O=S(=O)(/N=C(/c1ccccc1)N1CCCCCC1)c1ccccc1,-5.59
21,Br.c1ccc(-c2csc(NNC3=NCCCCC3)n2)cc1,4.09
22,O=C(Nc1ccccc1C(F)(F)F)c1cc(S(=O)(=O)N2CCOCC2)ccc1F,-4.51
